{"source": "paper PMC4336329", "about": "(PLoS ONE, 2015)", "note": "Hit rate of the full screen: of about 310,000 compounds, about 14,000 (4.5%) showed an effect of 50% or more. Effects have a minus sign here. This is one part of the list.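 Further: peak tail current of the secondary pulse compared with the same well before compound.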", "data": [{"target": "human ether-à-go-go-related gene (hERG) potassium channel (human, UniProt Q12809)", "sequence (Q12809 whole entry, looked up)": "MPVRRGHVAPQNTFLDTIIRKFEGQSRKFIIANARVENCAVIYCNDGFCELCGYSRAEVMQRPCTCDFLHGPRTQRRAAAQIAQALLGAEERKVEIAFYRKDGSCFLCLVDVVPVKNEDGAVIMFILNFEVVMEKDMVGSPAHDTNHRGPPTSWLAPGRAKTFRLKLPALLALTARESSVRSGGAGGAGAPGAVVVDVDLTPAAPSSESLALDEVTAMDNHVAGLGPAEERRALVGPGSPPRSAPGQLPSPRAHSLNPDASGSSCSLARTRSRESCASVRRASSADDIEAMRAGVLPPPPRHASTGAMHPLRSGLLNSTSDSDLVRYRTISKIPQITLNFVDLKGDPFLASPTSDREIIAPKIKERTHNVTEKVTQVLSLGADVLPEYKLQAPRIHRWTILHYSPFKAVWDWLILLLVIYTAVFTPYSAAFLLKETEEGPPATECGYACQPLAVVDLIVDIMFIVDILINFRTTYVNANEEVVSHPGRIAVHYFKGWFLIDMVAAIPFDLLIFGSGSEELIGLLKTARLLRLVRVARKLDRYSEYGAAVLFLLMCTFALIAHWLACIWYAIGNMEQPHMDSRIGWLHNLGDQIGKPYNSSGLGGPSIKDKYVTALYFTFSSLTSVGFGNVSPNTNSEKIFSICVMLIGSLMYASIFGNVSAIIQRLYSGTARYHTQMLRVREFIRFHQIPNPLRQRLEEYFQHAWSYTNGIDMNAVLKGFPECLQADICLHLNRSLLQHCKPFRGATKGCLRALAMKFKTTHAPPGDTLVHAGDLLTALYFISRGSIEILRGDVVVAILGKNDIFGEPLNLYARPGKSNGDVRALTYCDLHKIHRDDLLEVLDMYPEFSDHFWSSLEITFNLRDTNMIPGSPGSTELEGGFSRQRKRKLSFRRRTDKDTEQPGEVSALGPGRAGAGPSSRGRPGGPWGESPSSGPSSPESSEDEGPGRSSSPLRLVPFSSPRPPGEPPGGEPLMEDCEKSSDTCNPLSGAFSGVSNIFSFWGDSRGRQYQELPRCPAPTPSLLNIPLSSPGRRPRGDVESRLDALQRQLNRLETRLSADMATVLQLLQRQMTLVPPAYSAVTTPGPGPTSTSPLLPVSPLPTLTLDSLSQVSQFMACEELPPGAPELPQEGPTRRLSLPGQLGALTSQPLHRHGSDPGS", "assay": "primary screen, population patch clamp on CHO cells stably expressing hERG", "units": {"hERG current change (%, negative = inhibition) at 10uM": "%"}, "values": [{"smiles": "O=C(NCc1ccco1)C1CCCN1C(=O)Nc1cccc(Cl)c1", "note": "(centres unmarked)", "hERG current change (%, negative = inhibition) at 10uM": 12.5}, {"smiles": "Cc1ccc(NC(=O)c2ccccc2)cc1-n1cnnn1", "hERG current change (%, negative = inhibition) at 10uM": -6.74}, {"smiles": "O=C(CN1CCOCC1)N/N=C/c1cccc2ccccc12", "hERG current change (%, negative = inhibition) at 10uM": 16.7}, {"smiles": "COc1ccccc1N1CCN(C(=S)Nc2ccccc2)CC1", "hERG current change (%, negative = inhibition) at 10uM": 7.35}, {"smiles": "CC(C)n1nc(C(=O)N2CCN(S(=O)(=O)c3cccs3)CC2)c2ccccc2c1=O", "hERG current change (%, negative = inhibition) at 10uM": -28.7}, {"smiles": "O=C(CCl)NC(Cc1c[nH]c2ccc(OCc3ccccc3)cc12)C(=O)O", "note": "(centres unmarked)", "hERG current change (%, negative = inhibition) at 10uM": 15.4}, {"smiles": "COc1ccc(-c2nc(SCc3ccccc3)n(S(C)(=O)=O)n2)cc1", "hERG current change (%, negative = inhibition) at 10uM": -12.8}, {"smiles": "Cc1ccc(C2C(C#N)=C(N)Oc3n[nH]c(-c4cccs4)c32)cc1", "note": "(centres unmarked)", "hERG current change (%, negative = inhibition) at 10uM": 22.3}, {"smiles": "Cc1cc(C)c(C2C3=C(Nc4c2c(C)nn4-c2ccccn2)c2ccccc2C3=O)c(C)c1", "note": "(centres unmarked)", "hERG current change (%, negative = inhibition) at 10uM": -0.0144}, {"smiles": "N#C/C(=C\\c1cccnc1)C(=O)Nc1ccc(C(=O)O)cc1", "hERG current change (%, negative = inhibition) at 10uM": 6.25}, {"smiles": "COCCN(C(=O)c1ccc(C)o1)c1c(N)n(CC(C)C)c(=O)[nH]c1=O", "hERG current change (%, negative = inhibition) at 10uM": -43.6}, {"smiles": "CCCc1cc(Nc2ccccc2)n2ncnc2n1", "hERG current change (%, negative = inhibition) at 10uM": 2.69}, {"smiles": "COc1cccc(/C=C/C(=O)c2ccc3c(c2)OCCO3)c1OC", "hERG current change (%, negative = inhibition) at 10uM": 7.09}, {"smiles": "Nc1cc(C(=O)OCC(=O)N2CCOCC2)ccc1Cl", "hERG current change (%, negative = inhibition) at 10uM": 17.8}, {"smiles": "Cc1cc(C)c2cc(C(=O)N3CCc4ccccc4C3)[nH]c2c1", "hERG current change (%, negative = inhibition) at 10uM": 4.18}, {"smiles": "CN1CCN(C(=O)C2CCCN(S(=O)(=O)c3ccc(F)cc3)C2)CC1", "note": "(centres unmarked)", "hERG current change (%, negative = inhibition) at 10uM": 19.9}, {"smiles": "Cc1ccc(C)c(NP(=O)(Oc2ccccc2)Oc2ccccc2)c1", "hERG current change (%, negative = inhibition) at 10uM": 21.3}, {"smiles": "Cn1c(SCCN2CCCCC2)nnc1-c1ccccc1Br.O=C(O)C(=O)O", "hERG current change (%, negative = inhibition) at 10uM": 4.79}, {"smiles": "COCCNC(=O)CSc1nnc2c(Cl)cc(Cl)cn12", "hERG current change (%, negative = inhibition) at 10uM": -4.17}, {"smiles": "COC(=O)C1CCN(c2ccc(Cl)nn2)CC1", "hERG current change (%, negative = inhibition) at 10uM": 20.9}, {"smiles": "CC(C)(C)NC(=S)NNC(=O)c1ccncc1", "hERG current change (%, negative = inhibition) at 10uM": 15.4}, {"smiles": "O=C(CNS(=O)(=O)c1ccc(Br)s1)N1CCN(c2ccc(F)cc2)CC1", "hERG current change (%, negative = inhibition) at 10uM": -25.2}, {"smiles": "O=C1Nc2ccccc2/C1=N\\N=C\\c1ccc(O)c(O)c1", "hERG current change (%, negative = inhibition) at 10uM": -3.02}, {"smiles": "CO/N=C/C(NC(=O)c1ccc(C(F)(F)F)cc1)C(=O)OC", "note": "(centres unmarked)", "hERG current change (%, negative = inhibition) at 10uM": 7.62}, {"smiles": "CCOC(=O)CC(=O)CSc1nc2c(cc1C#N)CCCCC2", "hERG current change (%, negative = inhibition) at 10uM": 15.7}, {"smiles": "Clc1ccc(-c2nc3ccccc3[nH]2)cn1", "hERG current change (%, negative = inhibition) at 10uM": 18.3}]}]}
